About 2,200 (0.71%) of roughly 310,000 compounds showed an effect of 50% or more. Effects have a minus sign here. The list shows a part of the results.
Target: human ether-à-go-go-related gene (hERG) potassium channel (human, UniProt Q12809)
Assay: primary screen, population patch clamp on CHO cells stably expressing hERG

Sequence of human ether-à-go-go-related gene (hERG) potassium channel (Q12809 whole entry, looked up): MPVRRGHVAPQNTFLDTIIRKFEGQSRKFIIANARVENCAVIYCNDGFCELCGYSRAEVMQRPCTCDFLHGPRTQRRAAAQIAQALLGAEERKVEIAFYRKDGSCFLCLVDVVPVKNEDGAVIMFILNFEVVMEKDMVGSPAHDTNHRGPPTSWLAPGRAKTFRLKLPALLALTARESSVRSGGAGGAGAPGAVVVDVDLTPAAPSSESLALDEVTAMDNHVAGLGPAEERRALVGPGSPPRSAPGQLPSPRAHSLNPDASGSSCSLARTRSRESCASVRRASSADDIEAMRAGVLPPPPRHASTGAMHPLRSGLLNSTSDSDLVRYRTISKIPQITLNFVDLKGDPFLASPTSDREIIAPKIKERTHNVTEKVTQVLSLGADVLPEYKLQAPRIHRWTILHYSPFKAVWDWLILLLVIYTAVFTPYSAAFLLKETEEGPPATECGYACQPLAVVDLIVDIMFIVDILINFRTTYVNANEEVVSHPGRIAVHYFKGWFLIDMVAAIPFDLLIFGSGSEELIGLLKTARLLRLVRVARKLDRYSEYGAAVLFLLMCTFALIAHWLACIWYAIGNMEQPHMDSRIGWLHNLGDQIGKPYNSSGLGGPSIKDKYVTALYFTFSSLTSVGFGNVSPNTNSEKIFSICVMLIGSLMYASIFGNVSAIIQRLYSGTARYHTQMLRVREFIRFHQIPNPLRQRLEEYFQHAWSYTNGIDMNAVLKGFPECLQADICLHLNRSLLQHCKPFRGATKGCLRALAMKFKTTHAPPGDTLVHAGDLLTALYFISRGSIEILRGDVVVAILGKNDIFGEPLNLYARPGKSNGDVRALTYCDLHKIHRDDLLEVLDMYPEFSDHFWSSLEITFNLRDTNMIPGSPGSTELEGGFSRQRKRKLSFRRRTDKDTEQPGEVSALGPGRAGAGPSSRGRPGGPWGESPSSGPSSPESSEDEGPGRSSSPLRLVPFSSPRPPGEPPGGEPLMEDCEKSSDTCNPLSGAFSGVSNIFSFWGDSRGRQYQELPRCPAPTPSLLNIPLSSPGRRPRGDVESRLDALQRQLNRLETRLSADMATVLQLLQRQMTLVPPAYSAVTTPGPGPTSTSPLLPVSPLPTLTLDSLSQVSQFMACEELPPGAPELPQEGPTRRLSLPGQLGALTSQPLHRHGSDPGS

Point of comparison: `CCOc1ccc(-c2cc3nc(C4CCN(C(=O)OC(C)(C)C)CC4)c(C(=O)O)cn3n2)cc1`, “hERG current change (%, negative = inhibition) at 1uM” value 8.49%. Against it:
- CN1CCN(Cc2cccc(Oc3ccc(Cl)cc3)c2)CC1 — lower, 0.0483%
- O=C(NCCCN1CCCC1=O)c1ccc(NS(=O)(=O)c2ccccc2)cc1 — lower, 5.59%
- Cn1nc(-c2ccccc2F)c2cc(C(=O)Nc3ccc4c(c3)OCCO4)sc21 — lower, 8.3%
- Cc1cccc(N2C(N)=NC(N)=NC23CCCCC3)c1.Cl — lower, 2.48%
- CC1(C)NC(=O)[C@H]2CCCN21 — higher, 15.6%
- CCC(=Nc1ccccc1NC(C)=O)c1c(O)n(C)c(=O)n(C)c1=O — lower, 2.93%
- Cc1ccc(S(=O)(=O)N2CCN(C(=O)CC(C)n3nc(C)c(Cl)c3C)CC2)cc1C (centres unmarked) — higher, 22.1%
- CCc1nnc(NC(=O)CSc2ncnc3c2oc2ccccc23)s1 — higher, 9.59%
- COC(=O)c1ccc(/C=N/n2c(C)nc3ccccc3c2=O)cc1 — higher, 9.05%
- CC(C)C[C@H](N)c1nnc(S(=O)(=O)Cc2ccc(F)cc2)o1.Cl — lower, 3.47%
- COc1ccc(NC(=O)c2cc(-c3ccc4c(c3)OCO4)on2)cc1OC — lower, -0.461%
- CCCNC(=O)CCc1c(C)nc2nc(C)nn2c1C — higher, 14%
- COc1cc2c(cc1OC)C1=NC(=O)CN1C(SCc1ccc(C)cc1)=N2 — higher, 14.3%
- O=C(Cc1cccc(C(F)(F)F)c1)NCc1ccc(Cl)cc1 — lower, -6.63%
- Cc1cc(C)n(CCCNC(=O)CN(C)S(=O)(=O)c2ccc(Cl)cc2)n1 — higher, 10%
- CCOc1ccc(NS(=O)(=O)c2ccc(C)c(C(=O)NCCCn3ccnc3)c2)cc1 — higher, 24.1%
- CC(C)(C)NC(=S)NCCc1ccccc1 — higher, 13.4%
- COC(=O)CCCCNC(=O)Nc1ccccc1 — lower, 4%
- O=[N+]([O-])c1ccc(OCC2CC(c3ccccc3)=NO2)cc1 (centres unmarked) — higher, 10.3%
- NC(=S)Nc1ccc(F)c(F)c1F — lower, -1.98%
- COc1ccc(C2=NN(c3nc4ccccc4s3)C(=O)C2)cc1 — lower, 2.46%
- C/C=C(/C)C(=O)Nc1cccc(C2=NOC3(C2)C[C@@H](C(N)=O)N(C(=O)C2(C)CC2)C3)c1 (some centres unmarked) — higher, 14.5%
- O=C(CCN1C(=O)C2C3C=CC(C3)C2C1=O)N1CCN(c2cccc(Cl)c2)CC1 (centres unmarked) — lower, -5.32%
- CCc1ccc(C(=O)COC(=O)CNC(=O)c2cccs2)cc1 — lower, -1.09%
- CCOc1ccc(NS(=O)(=O)c2cc(C(=O)N(CC)CC(=O)NCc3cccs3)ccc2C)cc1 — higher, 14.1%
- Cc1ccc(-c2nc3ccccc3s2)cc1NC(=S)NC(=O)c1cccc2ccccc12 — lower, -3.79%
- COc1ccc(N2CCN(C3CCCN(C(=O)c4ccoc4)C3)CC2)cc1 (centres unmarked) — higher, 14.9%
- Cc1ccc(CN2CCN(Cc3cc(=O)c4ccccc4[nH]3)CC2CCO)o1 (centres unmarked) — lower, 1.41%
- Cc1cc(C)c(C(=O)OCC(=O)Nc2cccc(S(=O)(=O)N3CCCCC3)c2)c(C)c1 — lower, 5.11%
- Cc1cc(=O)oc2c3c(cc(OCC(=O)N[C@@H](Cc4ccccc4)C(=O)O)c12)OC(C)(C)CC3 — lower, 5.14%
- CCCOc1ccc(N2C(=O)CC(N3CCC(C(=O)OCC)CC3)C2=O)cc1 (centres unmarked) — lower, 2.36%
- CCOC(=O)c1c(C)noc1-c1ccco1 — higher, 13.8%
- Cc1c(C)n(CCc2ccccc2)c2ncnc(NCCCN(C)C)c12 — lower, -15.3%
- O=C(O)CCc1ccc(-c2ccccc2)n1NC(=O)c1sc2ccccc2c1Cl — lower, 5.29%
- CCNC(=O)COC(=O)/C=C/c1cccc(F)c1 — lower, -1.08%
- O=C(COC(=O)/C=C/c1cccc([N+](=O)[O-])c1)NCCCN1CCCC1=O — lower, 7.23%
- COC(=O)c1ccccc1N=C(SC)N(C)C — higher, 10.3%
- Cc1ccc(N2C(=O)CC3(CC4C=CC3C4)C2=O)cc1 (centres unmarked) — lower, 2.71%
- CC(C)C(=O)Nc1nnc(Cc2c[nH]c3ccccc23)s1 — higher, 25%
- CN(C)S(=O)(=O)N1CCC(n2nccc2NC(=O)CCc2ccccc2)CC1 — higher, 10.4%
- Cc1ccccc1-c1nc(C#N)c(N2CCCCC2)o1 — higher, 19.2%
- O=C1NC[C@H](Cc2ccc(O)cc2)N(CCc2cccc3ccccc23)C1=O — lower, 0.858%
- CC1CC(C)CN(C(=O)CSc2ccsc2[N+](=O)[O-])C1 (centres unmarked) — lower, 7.53%
- O=S(=O)(Cc1ccc(Cl)cc1)Nc1ccc2c(c1)OCO2 — higher, 8.69%
- CCC(=O)Nc1cc(-c2nnc(OC)c3ccccc23)ccc1N1CCOCC1 — lower, 7.12%
- COC(=O)c1cc(OC)c(OC)cc1NC(=S)NC(=O)c1ccco1 — higher, 17.7%
- COC(=O)c1nn(Cc2ccccc2)c(=O)c2ccccc12 — lower, 1.42%
- CN(C)S(=O)(=O)N1CCN(CC(=O)Nc2ccc(F)cc2)CC1 — lower, -17.2%
- COc1ccc(CN2CCN(Cc3ccc(C)cc3)CC2)c(OC)c1.O=C(O)C(=O)O — lower, -18.9%
- CCOc1cc(C2C(C#N)=C(N)Oc3cc(N)ccc32)ccc1O (centres unmarked) — higher, 8.54%
- COCCN1C2=C(COC(C)(C)C2)C(=S)NC1c1ccccc1 (centres unmarked) — lower, -0.297%
- COc1ccc(NC(=O)COc2ccc3c(C)cc(=O)oc3c2)cc1S(=O)(=O)N1CCCCC1 — lower, -8.82%
- CN(C(=O)c1ccccc1OC1CCN(S(C)(=O)=O)CC1)C1CCOC1 (centres unmarked) — lower, 8%
- CCCN=CC1=C(O)CC(c2ccccc2)CC1=O (centres unmarked) — lower, 7.66%
- OCCC1CN(Cc2cccc3c2OCO3)CCN1C1CCCC1 (centres unmarked) — lower, -0.371%
- O=C(N/N=C/c1cc([N+](=O)[O-])ccc1O)c1cccc2cc[nH]c12 — lower, 4.18%
- CN(C)S(=O)(=O)N(CC(=O)N1CCC(Cc2ccccc2)CC1)c1ccccc1 — higher, 12.3%
- COC(=O)c1ccccc1NC(=O)c1ccc(F)cc1 — higher, 8.96%
- COc1ccc(C(O)CNc2ccc(C)cc2)cc1 (centres unmarked) — lower, 3.93%
- Cc1cc2occ(CC(=O)N(C)CC(=O)Nc3ccccc3C(F)(F)F)c2cc1C — lower, 0.242%
- O=C(OCC(=O)N1CCN(C(=O)c2ccco2)CC1)c1ccc(Cl)cc1 — lower, -5.66%
- CC(C)Cc1nnc(NC(=O)CSc2nc(O)c(-c3ccccc3)c(=O)[nH]2)s1 — higher, 18.2%
- COc1ccc(C/C(N)=N/OC(=O)Cc2ccc(OC)c(OC)c2)cc1 — lower, 2.45%
- Cc1ccc(NC(=S)N(CCN(C)C)Cc2cccs2)c(C)c1 — lower, 6.69%
- O=C1CCc2cc(S(=O)(=O)N3CCN(Cc4ccc5c(c4)OCO5)CC3)ccc2N1 — lower, -46.1%
- COc1ccc(C(=O)NCCc2c[nH]c3ccc(OC)cc23)cc1 — higher, 12.9%
- COc1cc(N)c(Cl)cc1NC(=O)c1ccccc1 — higher, 14.1%
- CC1CCCCC1NS(=O)(=O)c1ccc(S(=O)(=O)NCc2ccncc2)cc1 (centres unmarked) — higher, 12.4%
- CC(=O)c1cccc(N(CC(=O)Nc2ccc(F)cc2)S(C)(=O)=O)c1 — lower, 2.01%
- COc1ccc(S(=O)(=O)N2CCOC23CCN(S(=O)(=O)c2ccc(Cl)cc2)CC3)cc1 — lower, 6.09%
- O=C(COC(=O)CNC(=O)c1ccco1)Nc1ccccc1OC(F)F — higher, 10.5%
- CCOC(=O)c1[nH]cnc1C(=O)NCc1ccccc1 — lower, 4.43%
- CSc1nnc(SCC(=O)NC(=O)c2ccccc2)s1 — higher, 13.4%
- C=CCC(Nc1ccccc1)c1cccc(OC)c1OC (centres unmarked) — higher, 10.1%
- CCOc1ccc(NC(=O)CCNC(=O)Cn2ccc3ccccc3c2=O)cc1 — higher, 11.9%
- COc1cc(C=O)ccc1OCc1ccc(Cl)nc1 — higher, 14.5%
- CCSc1ccc(-c2cccc([N+](=O)[O-])c2)nn1 — higher, 8.72%
- Cc1ccc(N(C)S(=O)(=O)c2ccc3c(c2)NC(=O)C(C)S3)cc1 (centres unmarked) — higher, 9.53%
- CC(=O)N1CC23C=CC(CC2CC12CCCCCC2)O3 (centres unmarked) — lower, 7.07%
- Cc1nn(-c2ccccc2)c(Cl)c1/C=N/NC(=O)c1cccnc1 — lower, 3%
- CCCC1=C(C(=O)OCC)C(c2c(C)nn(-c3ccccc3)c2Cl)C(C#N)=C(N)O1 (centres unmarked) — lower, -3.31%
- CC1CCC(C(=O)NC(C(=O)N2CCc3ccccc3C2)C(C)C)CC1 (centres unmarked) — lower, 5.96%
- CCC1=NN2C(=N)/C(=C\c3cccn3-c3ccc(C)cc3C)C(=O)N=C2S1 — higher, 9.77%
- C=CCN1C(=O)c2ccc(C(=O)N(CCOC)c3c(N)n(CCCC)c(=O)[nH]c3=O)cc2C1=O — lower, 3.79%
- CC(C)C[C@@H](CO)N1CCN(Cc2ccc([N+](=O)[O-])cc2)CCC1=O — lower, 2.54%
- O=C(CN1C(=O)S/C(=C\c2ccc(O)c([N+](=O)[O-])c2)C1=O)Nc1ccc(N2CCOCC2)cc1 — higher, 13.6%
- Cc1ccc(CNC(=O)CSc2ccsc2[N+](=O)[O-])cc1 — lower, 3.28%
- CCNS(=O)(=O)c1ccc(NC(=S)N2CCc3ccccc32)cc1 — higher, 19.4%
